# ± gives the standard deviation of the averaged measurements. The list shows a part of the results.
# Test system: PfAP2-G AP2 domain (GST-tagged)
# Assay: gcPBM binding intensity (ln(normalized median fluorescence intensity)); higher = stronger DNA binding
# Procedure, shortened: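 The binding buffer was 1× PBS containing 1% milk, 0.2 mg/ml BSA, 0.5% salmon testes DNA and 0.03% Triton X-100. In it, GST-tagged P. falciparum DNA-binding domains expressed in E. coli were applied for 1 h to an Agilent 4 × 180k array of primer-extended double-stranded 36-bp intergenic genomic probes plus negative controls. Binding intensity, read with Alexa488 anti-GST antibody and a 488 nm scan, is the highest Masliner-normalised natural-log median intensity across replicate spots of either probe orientation.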
row,Sequence,gcPBM binding intensity (ln)
1,AAAAAAAAAAAAAAGGTGCATACTTTGAATTAATAT [GTGCAC_site9401],10.3 ± 0.26
2,TATACATACCATAATGCATGTAAGAACAAATAACTG [TGCATGCA_site264],10.1 ± 0.16
3,ATGACTCTCAAGTTTGCACACATTTATATTTTTTAA [CACACA_site2605],10.2 ± 0.14
4,ATATATATATATATATGTACTAATTAATATTTCGAG [XGTACX_site580],11 ± 0.78
5,TTTAAAATACAGAAGGTGCATTTAACATATTTGTAT,9.935 ± 0.007
6,TATATATATAAACACACACACATATATATATATATA [CACACA_site4584],9.96 ± 0.32
7,AAAAAAAAAAAATGCACACATATATTTCCATATACA [CACACA_site1471],10 ± 0.2
8,TATATATATTATATATGTACATATTATATATATATA [XGTACX_site7300],11.2 ± 0.88
9,ATATATTTGATAAGAGTGCACAAATACATACATACA [GTGCAC_site9704],10.7 ± 0.44
10,ACAAAATTTACAAAATGTACAAAATTTACAAAGTAT [XGTACX_site6463],10.6 ± 0.23
11,GTATATCATATTTCATGTACACAAAAAAATAAAAAT [XGTACX_site704],11.5 ± 1
12,ACATCAAGCGGACACACACACACACCGACAGACACA [CACACA_site4361],11.2 ± 0.57
13,AAAGAATCAAGAATAGTGCAAATATGTATAACCTTT,9.76 ± 0.28
14,ATAATACTACCTACATGTACTTATATATAAATGAAT [XGTACX_site3417],11.5 ± 0.89
15,GTTTTAACAAAATTAGTGCATTTATCAATTATATAA,9.72 ± 0.085
16,TTTTTTTTTTCAATGGCACACATTTTAGATTTATGC [CACACA_site1074],10.2 ± 0.21
17,AATAACATGTTATATACACACATTATGAAGTCTTCA [CACACA_site746],9.79 ± 0.11
18,AAGATTATAAATATATGTACATAAATATATTATATA [XGTACX_site8056],11.2 ± 0.67
19,ATTGTTTTTTTTTCTTTGTGGAATGAATGAATATAT [XGTACX_negctrl_site603],10 ± 0.19
20,ATAAAATAATGAAAAACACACATTTTTATTTGTATA [CACACA_site3369],9.62 ± 0.23
21,ATATATATATATGAATCACACACAAAAAATATAGAG [CACACA_site9298],10.3 ± 0.24
22,AAAAAAAAAAAAAAAACACACAAACATCAAATTATT [CACACA_site5083],10.3 ± 0.19

row,Sequence,gcPBM binding intensity (ln)
1,ATAATAATTTAATACATACACACGTATATCTTTTTT [CACACA_site2041],9.995 ± 0.092
2,TTAATAAATAAAAATGCACACAGTTAACATGTTGAA [CACACA_site1200],10.1 ± 0.21
3,GCACATAAATATATGACACACACACCGATTATATAT [CACACA_site9003],10.2 ± 0.14
4,TTTTCAATATATTAATGTACGAATACGCAAATAAGA [XGTACX_site1613],11.1 ± 0.83
5,ATACAAAAAGTAAAAAGTACTTAACTAAATATATAA [XGTACX_site2335],11.2 ± 0.79
6,ATCTTATATGATCACACACACACGCACAAAACAGAA [CACACA_site4913],10.6 ± 0.47
7,GCAGGATTGGTTCAAACACACATATTATATGACTAT [CACACA_site660],10.02 ± 0.028
8,TTTTTTTTTTTTTTTGCACACACATAATAGGTACAA [CACACA_site3578],11.3 ± 1.2
9,TTTGCACCGTTTAAGTGTACAGAATTATGACATATA [XGTACX_site6735],11.1 ± 0.67
10,TCAAAAATATTCTGGAGTACCTTTTTAAAGGTATAG [XGTACX_site6893],11 ± 0.61
11,TTTATATATATATATATATATAATAAATGATACACA [TGCATGCA_negctrl_site392],9.79 ± 0.19
12,TATTTTTTTTCTTATACACACCATGCATCAAACTAA [CACACA_site5208],10.4 ± 0.38
13,TGTGGTTACATGTGCACACACTTATTTCGTTCTTAT [CACACA_site4907],10.8 ± 0.33
14,TAAATATATATATACACACACATACACAAAAAAAAA [CACACA_site3580],10.2 ± 0.18
15,ATTGCATATAATGGCACACATAAATCCATAATATAT [CACACA_site297],10.13 ± 0.092
16,TTTTATTCCTTCTTTGCACACGTTTAAAAATATATA [CACACA_site2899],10.4 ± 0.33
17,AATATAATATAAGGATCACACACAAACACCCATATA [CACACA_site8084],10.3 ± 0.23
18,TAATCGAAACAAAGAACATGCAAACATATACCTATA [TGCATGCA_site894],9.865 ± 0.049
19,CAAAATTTATGTAAAAGTACAAAAATATAGAAAGAT [XGTACX_site1122],11.1 ± 0.56
20,TGTGTTCATCTATGCACACGCATATATATTATTGTT [CACACA_site5985],9.89 ± 0.014
21,TAAAAAAAAAAAAAAACACACATATAAATATATATA [CACACA_site1243],9.51 ± 0.085
22,AAAATTAAAAAGAACACACAAATATATCTATAATAA [CACACA_site7660],9.81 ± 0.26

# Reference: the supplement of paper PMC11417369
